Publication PMC9462884, “Tensin3 interaction with talin drives the formation of fibronectin-associated fibrillar adhesions” (The Journal of Cell Biology, 2022)
No constants are given. Whether binding was seen depends on the method and setting. Some entries that bind do so weakly or less than the wild type. For part of these data: Where a sequence is shown, tags or fusion partners need not be part of it.

Amino acid sequences for entries named in this document (tags omitted).
UniProt Q05397: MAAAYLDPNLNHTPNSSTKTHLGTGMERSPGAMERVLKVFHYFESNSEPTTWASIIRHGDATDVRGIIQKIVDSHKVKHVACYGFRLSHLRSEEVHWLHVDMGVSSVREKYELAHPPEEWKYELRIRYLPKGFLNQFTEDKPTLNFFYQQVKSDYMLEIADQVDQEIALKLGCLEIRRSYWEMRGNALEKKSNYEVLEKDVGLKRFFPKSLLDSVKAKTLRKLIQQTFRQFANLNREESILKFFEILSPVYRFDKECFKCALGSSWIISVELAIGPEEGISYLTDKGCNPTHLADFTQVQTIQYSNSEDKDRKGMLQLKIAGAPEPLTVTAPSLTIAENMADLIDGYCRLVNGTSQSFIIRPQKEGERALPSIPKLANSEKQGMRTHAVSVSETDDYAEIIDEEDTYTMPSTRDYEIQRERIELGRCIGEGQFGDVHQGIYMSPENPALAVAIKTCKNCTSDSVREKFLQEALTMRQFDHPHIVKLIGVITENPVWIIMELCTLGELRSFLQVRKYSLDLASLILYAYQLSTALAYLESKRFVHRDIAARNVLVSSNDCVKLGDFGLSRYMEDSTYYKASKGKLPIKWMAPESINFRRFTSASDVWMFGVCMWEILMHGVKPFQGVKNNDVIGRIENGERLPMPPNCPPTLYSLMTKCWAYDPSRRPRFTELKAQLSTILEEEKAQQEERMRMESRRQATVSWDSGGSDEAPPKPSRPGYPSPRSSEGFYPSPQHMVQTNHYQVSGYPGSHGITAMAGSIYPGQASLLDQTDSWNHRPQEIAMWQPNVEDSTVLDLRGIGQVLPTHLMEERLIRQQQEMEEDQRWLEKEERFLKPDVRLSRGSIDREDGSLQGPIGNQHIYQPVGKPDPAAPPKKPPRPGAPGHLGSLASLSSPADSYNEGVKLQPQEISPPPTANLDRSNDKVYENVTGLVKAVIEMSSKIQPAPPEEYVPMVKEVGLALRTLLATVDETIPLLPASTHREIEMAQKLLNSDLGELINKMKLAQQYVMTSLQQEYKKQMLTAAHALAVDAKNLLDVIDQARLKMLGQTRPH
UniProt Q13418: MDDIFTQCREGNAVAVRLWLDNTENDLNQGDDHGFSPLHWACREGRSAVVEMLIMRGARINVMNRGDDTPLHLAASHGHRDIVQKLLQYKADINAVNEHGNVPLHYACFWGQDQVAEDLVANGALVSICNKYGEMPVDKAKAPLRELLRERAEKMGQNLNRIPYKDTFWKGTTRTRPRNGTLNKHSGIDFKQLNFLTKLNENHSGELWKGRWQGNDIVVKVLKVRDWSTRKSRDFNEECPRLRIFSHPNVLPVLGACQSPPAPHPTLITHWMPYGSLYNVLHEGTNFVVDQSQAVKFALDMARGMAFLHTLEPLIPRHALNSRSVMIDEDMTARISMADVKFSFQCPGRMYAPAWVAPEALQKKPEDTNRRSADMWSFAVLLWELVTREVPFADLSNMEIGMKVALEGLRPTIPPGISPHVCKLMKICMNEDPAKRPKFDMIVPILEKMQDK
UniProt P49023: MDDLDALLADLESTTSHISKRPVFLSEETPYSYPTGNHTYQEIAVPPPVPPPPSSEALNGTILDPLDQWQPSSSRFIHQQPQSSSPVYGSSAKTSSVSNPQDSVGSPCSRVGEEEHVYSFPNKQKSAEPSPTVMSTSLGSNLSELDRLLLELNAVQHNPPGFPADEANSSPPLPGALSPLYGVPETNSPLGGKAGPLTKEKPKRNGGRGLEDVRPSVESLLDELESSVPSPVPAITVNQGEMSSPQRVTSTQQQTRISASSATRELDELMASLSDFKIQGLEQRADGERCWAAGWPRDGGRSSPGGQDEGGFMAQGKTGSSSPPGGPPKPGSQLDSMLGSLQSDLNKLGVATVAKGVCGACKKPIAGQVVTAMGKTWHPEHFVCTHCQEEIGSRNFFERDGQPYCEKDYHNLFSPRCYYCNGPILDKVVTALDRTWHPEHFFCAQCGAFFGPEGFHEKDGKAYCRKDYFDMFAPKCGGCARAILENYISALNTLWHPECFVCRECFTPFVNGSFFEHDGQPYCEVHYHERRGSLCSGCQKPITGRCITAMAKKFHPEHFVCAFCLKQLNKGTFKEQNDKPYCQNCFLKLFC
UniProt P26039: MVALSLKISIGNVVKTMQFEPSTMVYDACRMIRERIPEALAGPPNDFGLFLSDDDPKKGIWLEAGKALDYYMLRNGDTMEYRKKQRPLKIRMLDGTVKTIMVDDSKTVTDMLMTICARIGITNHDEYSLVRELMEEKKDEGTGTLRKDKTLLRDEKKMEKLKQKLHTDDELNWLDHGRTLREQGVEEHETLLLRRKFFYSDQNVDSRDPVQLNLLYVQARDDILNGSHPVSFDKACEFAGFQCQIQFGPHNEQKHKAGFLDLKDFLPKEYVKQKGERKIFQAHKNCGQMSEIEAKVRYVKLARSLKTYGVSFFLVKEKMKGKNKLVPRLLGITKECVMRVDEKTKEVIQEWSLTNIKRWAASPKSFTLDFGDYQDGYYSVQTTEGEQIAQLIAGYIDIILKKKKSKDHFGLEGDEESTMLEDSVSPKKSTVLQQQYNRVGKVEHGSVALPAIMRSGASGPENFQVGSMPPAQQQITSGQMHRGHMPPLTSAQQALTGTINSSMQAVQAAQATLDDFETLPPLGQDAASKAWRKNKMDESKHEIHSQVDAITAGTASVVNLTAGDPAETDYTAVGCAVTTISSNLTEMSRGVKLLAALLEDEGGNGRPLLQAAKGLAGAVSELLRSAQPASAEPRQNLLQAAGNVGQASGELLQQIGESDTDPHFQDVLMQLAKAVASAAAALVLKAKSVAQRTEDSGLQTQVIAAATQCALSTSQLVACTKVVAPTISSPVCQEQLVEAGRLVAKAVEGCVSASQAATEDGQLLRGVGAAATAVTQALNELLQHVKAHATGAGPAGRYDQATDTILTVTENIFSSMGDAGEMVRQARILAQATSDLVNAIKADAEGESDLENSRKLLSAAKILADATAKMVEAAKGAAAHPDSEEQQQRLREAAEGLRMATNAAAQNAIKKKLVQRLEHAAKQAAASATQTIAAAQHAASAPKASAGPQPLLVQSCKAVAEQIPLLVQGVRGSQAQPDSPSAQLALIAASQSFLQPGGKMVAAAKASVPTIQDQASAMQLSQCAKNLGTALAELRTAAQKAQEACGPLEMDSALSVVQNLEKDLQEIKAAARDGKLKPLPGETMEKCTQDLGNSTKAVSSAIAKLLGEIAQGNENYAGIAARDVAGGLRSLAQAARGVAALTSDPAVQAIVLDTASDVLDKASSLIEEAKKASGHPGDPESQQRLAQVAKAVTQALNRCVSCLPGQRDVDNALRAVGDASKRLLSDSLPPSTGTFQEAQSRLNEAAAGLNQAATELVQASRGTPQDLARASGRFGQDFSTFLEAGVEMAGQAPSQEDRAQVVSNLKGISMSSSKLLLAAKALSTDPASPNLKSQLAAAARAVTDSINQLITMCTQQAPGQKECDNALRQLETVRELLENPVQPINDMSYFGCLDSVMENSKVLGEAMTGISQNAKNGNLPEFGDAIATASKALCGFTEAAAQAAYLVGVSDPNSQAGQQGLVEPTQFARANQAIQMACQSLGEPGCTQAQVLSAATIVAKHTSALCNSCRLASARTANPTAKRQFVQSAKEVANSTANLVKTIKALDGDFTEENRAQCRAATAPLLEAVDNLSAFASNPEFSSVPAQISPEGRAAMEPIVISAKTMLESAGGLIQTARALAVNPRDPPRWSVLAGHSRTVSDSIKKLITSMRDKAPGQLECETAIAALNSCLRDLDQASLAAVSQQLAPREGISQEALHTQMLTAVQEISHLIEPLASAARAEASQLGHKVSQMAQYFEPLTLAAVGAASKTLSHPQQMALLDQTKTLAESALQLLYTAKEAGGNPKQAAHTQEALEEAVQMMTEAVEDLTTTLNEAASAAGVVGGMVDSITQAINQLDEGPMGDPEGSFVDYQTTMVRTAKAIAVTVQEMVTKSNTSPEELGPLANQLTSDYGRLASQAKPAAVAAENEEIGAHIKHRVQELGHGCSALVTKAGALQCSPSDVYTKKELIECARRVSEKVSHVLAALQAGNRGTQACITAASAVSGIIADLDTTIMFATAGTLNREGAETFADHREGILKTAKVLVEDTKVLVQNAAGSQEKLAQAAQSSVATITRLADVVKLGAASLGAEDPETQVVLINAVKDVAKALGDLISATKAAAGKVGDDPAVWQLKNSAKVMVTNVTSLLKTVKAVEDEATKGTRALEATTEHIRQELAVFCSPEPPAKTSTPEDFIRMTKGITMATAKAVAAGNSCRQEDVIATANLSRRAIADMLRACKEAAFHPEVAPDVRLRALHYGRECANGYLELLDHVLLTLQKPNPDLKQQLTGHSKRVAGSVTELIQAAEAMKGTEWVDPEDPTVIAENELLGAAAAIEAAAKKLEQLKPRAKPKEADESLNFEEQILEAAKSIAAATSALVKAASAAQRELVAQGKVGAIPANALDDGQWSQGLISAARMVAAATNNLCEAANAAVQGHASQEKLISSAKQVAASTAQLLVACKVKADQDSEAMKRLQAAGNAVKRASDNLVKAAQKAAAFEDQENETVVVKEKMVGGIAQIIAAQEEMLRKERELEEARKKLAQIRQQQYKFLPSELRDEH
UniProt Q8VI36: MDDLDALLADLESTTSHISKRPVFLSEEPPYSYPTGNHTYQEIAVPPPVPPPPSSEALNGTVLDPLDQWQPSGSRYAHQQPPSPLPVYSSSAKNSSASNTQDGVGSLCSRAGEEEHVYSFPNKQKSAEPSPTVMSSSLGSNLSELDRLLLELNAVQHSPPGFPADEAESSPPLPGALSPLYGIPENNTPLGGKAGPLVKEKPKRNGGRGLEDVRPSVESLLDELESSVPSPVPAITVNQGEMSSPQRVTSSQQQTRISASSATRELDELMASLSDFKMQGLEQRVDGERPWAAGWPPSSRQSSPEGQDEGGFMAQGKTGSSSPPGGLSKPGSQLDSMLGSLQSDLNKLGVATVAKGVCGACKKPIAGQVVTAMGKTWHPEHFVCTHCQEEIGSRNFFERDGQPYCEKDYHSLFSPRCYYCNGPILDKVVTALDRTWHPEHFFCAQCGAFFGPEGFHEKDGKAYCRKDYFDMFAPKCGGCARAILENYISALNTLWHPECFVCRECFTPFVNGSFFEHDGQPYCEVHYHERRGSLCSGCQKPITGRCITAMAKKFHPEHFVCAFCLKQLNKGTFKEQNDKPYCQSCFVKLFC

B1: GFP-KANK2 (protein, UniProt Q63ZY3 1-851)
chain: MAQVLHVPAPFPGTPGPASPPAFPAKDPDPPYSVETPYGYRLDLDFLKYVDDIEKGHTLRRVAVQRRPRLSSLPRGPGSWWTSTESLCSNASGDSRHSAYSYCGRGFYPQYGALETRGGFNPRVERTLLDARRRLEDQAATPTGLGSLTPSAAGSTASLVGVGLPPPTPRSSGLSTPVPPSAGHLAHVREQMAGALRKLRQLEEQVKLIPVLQVKLSVLQEEKRQLTVQLKSQKFLGHPTAGRGRSELCLDLPDPPEDPVALETRSVGTWVRERDLGMPDGEAALAAKVAVLETQLKKALQELQAAQARQADPQPQAWPPPDSPVRVDTVRVVEGPREVEVVASTAAGAPAQRAQSLEPYGTGLRALAMPGRPESPPVFRSQEVVETMCPVPAAATSNVHMVKKISITERSCDGAAGLPEVPAESSSSPPGSEVASLTQPEKSTGRVPTQEPTHREPTRQAASQESEEAGGTGGPPAGVRSIMKRKEEVADPTAHRRSLQFVGVNGGYESSSEDSSTAENISDNDSTENEAPEPRERVPSVAEAPQLRPAGTAAAKTSRQECQLSRESQHIPTAEGASGSNTEEEIRMELSPDLISACLALEKYLDNPNALTERELKVAYTTVLQEWLRLACRSDAHPELVRRHLVTFRAMSARLLDYVVNIADSNGNTALHYSVSHANFPVVQQLLDSGVCKVDKQNRAGYSPIMLTALATLKTQDDIETVLQLFRLGNINAKASQAGQTALMLAVSHGRVDVVKALLACEADVNVQDDDGSTALMCACEHGHKEIAGLLLAVPSCDISLTDRDGSTALMVALDAGQSEIASMLYSRMNIKCSFAPMSDDESPTSSSAEE

Columns and labels:
[1] = target: T1, mCh-tensin3-FL-cBAK (human) (UniProt Q68CZ2); assay: mitochondrial targeting and recruitment assay; NIH3T3 cells co-expressing an mCherry- and cBAK-tagged bait at mitochondria with a GFP-tagged partner; co-localisation at mitochondria by fluorescence microscopy
T1 sequence: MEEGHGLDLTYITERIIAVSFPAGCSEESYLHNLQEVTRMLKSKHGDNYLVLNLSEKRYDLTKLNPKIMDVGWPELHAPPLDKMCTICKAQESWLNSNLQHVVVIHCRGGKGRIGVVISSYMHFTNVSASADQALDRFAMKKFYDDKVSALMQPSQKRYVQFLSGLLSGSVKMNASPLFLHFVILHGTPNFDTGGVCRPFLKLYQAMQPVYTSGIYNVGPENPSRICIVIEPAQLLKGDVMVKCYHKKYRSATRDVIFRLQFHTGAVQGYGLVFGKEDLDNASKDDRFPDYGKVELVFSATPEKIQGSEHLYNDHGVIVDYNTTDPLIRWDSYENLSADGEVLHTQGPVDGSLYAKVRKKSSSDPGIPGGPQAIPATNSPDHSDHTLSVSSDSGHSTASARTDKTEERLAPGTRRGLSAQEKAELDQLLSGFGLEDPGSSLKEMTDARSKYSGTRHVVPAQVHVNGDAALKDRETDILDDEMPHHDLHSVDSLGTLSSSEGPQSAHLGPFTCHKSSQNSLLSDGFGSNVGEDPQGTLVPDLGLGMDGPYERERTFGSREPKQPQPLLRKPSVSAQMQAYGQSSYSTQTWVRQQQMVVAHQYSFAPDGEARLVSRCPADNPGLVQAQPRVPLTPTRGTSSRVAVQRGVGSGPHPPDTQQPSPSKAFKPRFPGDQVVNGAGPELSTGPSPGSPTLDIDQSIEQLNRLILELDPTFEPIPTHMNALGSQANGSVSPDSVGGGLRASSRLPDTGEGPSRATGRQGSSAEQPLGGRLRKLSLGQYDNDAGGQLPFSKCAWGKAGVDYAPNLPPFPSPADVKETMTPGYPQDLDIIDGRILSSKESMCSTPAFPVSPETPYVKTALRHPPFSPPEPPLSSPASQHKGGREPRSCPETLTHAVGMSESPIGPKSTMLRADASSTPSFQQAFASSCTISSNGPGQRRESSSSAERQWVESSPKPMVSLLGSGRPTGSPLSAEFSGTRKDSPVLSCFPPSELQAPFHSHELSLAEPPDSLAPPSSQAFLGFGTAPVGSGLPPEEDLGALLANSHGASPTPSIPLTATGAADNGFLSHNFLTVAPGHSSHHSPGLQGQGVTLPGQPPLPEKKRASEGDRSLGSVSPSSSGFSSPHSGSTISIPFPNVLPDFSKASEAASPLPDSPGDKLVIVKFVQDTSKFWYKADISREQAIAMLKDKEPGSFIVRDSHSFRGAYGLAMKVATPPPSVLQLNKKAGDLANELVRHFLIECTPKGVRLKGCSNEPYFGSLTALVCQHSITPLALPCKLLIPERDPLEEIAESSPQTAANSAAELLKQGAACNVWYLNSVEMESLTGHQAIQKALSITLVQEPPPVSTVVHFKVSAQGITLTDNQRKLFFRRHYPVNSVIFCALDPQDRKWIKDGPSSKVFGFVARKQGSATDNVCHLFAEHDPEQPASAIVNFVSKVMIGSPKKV

[2] = target: T2, mCh-tensin2-cBAK (human) (UniProt Q63HR2); assay: as above
T2 sequence: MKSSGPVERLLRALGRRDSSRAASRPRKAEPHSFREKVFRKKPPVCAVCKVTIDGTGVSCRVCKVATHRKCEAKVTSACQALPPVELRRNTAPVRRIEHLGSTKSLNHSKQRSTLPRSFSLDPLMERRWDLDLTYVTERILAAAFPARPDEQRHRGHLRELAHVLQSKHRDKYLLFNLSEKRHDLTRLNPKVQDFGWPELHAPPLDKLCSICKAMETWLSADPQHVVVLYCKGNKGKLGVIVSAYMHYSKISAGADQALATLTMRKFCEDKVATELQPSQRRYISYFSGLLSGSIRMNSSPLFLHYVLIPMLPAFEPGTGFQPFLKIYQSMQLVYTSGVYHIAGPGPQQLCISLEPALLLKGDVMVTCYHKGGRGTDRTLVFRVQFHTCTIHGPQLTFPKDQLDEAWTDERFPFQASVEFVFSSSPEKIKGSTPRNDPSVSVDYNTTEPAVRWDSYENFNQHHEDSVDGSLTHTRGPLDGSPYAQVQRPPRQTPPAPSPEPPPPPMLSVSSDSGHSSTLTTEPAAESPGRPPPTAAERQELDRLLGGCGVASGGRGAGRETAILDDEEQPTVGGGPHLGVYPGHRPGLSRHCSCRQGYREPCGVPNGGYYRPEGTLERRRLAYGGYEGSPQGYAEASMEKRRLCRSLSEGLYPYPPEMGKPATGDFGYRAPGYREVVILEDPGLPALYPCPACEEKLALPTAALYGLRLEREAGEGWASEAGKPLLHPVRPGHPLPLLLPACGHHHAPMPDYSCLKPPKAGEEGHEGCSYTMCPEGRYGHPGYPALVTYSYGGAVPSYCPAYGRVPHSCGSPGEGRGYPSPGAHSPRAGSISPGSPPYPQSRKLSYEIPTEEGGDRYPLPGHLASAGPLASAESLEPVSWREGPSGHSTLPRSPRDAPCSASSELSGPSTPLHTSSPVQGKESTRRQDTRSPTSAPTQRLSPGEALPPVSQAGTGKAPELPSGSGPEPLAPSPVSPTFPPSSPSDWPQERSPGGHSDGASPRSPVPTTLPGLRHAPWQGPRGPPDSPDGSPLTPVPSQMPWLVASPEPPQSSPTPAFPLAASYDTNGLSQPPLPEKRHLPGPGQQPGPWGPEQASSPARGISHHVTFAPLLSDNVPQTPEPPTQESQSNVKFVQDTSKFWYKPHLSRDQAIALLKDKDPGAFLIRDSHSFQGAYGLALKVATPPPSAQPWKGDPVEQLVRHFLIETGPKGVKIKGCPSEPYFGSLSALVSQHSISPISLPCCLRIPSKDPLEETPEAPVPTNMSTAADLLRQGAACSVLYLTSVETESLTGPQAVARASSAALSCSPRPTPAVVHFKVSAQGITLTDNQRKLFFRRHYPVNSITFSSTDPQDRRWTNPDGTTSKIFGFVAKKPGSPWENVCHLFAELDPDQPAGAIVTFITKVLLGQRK

[3] = target: T1, mCh-tensin3-FL-cBAK (human); assay: mitochondrial targeting and recruitment assay; NIH3T3 cells expressing an mCherry- and cBAK-tagged tensin at mitochondria; endogenous partner immunostained
[4] = target: T1, mCh-tensin3-FL-cBAK (human); assay: mitochondrial targeting and recruitment assay; vinculin knock-out MEFs expressing mCh-tensin3-FL-cBAK; endogenous talin immunostained

Row | Molecule | binding [1] | binding [2] | binding [3] | binding [4]
1 | GFP-FAK (from UniProt Q05397 1-1052) | binds | no binding | – | –
2 | GFP-ILK (from UniProt Q13418 1-452) | binds | binds | – | –
3 | GFP-paxillin (from UniProt P49023 1-591) | binds | binds | – | –
4 | GFP-talin1 (from UniProt P26039 1-2541) | binds | no binding | – | –
5 | GFP-talin2 (from UniProt Q9Y4G6 1-2542) | binds | no binding | – | –
6 | endogenous paxillin (from UniProt Q8VI36 1-591) | – | – | binds | –
7 | endogenous talin1 (from UniProt P26039 1-2541) | – | – | binds | binds
8 | B1 | binds | no binding | – | –
